# Some of the results follow.
# B1: Apa (Mycobacterium tuberculosis), Rv1860 (protein)
# chain: MHQVDPNLTRRKGRLAALAIAAMASASLVTVAVPATANADPEPAPPVPTTAASPPSTAAAPPAPATPVAPPPPAAANTPNAQPGDPNAAPPPADPNAPPPPVIAPNAPQPVRIDNPVGGFSFALPAGWVESDAAHFDYGSALLSKTTGDPPFPGQPPPVANDTRIVLGRLDQKLYASAEATDSKAAARLGSDMGEFYMPYPGTRINQETVSLDANGVSGSASYYEVKFSDPSKPNGQIWTGVIGSPAANAPDAGPPQRWFVVWLGTANNPVDKGAAKALAESIRPLVAPPPAPAPAPAEPAPAPAPAGEVAPTPTTPTPQRTLPA
# Experiments:
# Assay in all cases: glycan array binding signal (z-score within array); higher = stronger binding
# Details in all cases: glycan notation: IUPAC condensed, linker removed
# [1] = target: Glc(b1-4)Glc
# Outline: (§1)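 The binding signal is a Z-score computed within each array and averaged over linkers. Arrays of the same protein sequence at different concentrations or buffers were also averaged together. Data originate from 3228 arrays in the Consortium for Functional Glycomics database, kept only where the protein sequence was available.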
# [2] = target: Glc(b1-6)Glc
# Outline: as §1
# [3] = target: GlcA(b1-3)Gal
# Outline: as §1
# [4] = target: GlcA(b1-3)GlcNAc
# Outline: as §1
# [5] = target: GlcA(b1-6)Gal
# Outline: as §1
# [6] = target: GlcA3S(b1-3)Gal(b1-4)GlcNAc(b1-2)Man
# Outline: as §1
# [7] = target: GlcA3S(b1-3)Gal(b1-4)GlcNAc(b1-3)Gal(b1-4)Glc
# Outline: as §1
# [8] = target: GlcNAc(a1-3)Gal(b1-4)GlcNAc
# Outline: as §1
# [9] = target: GlcNAc(a1-4)Gal(b1-3)GlcNAc
# Outline: as §1
# [10] = target: GlcNAc(a1-4)Gal(b1-4)GalNAc
# Outline: as §1
# [11] = target: GlcNAc(a1-4)Gal(b1-4)GlcNAc
# Outline: as §1
# [12] = target: GlcNAc(a1-4)Gal(b1-4)GlcNAc(b1-3)Gal(b1-4)Glc
# Outline: as §1
# [13] = target: GlcNAc(a1-4)Gal(b1-4)GlcNAc(b1-3)Gal(b1-4)GlcNAc
# Outline: as §1
# [14] = target: GlcNAc(a1-4)Gal(b1-4)GlcNAc(b1-3)Gal(b1-4)GlcNAc(b1-3)Gal(b1-4)GlcNAc
# Outline: as §1
# [15] = target: GlcNAc(a1-4)Gal(b1-4)GlcNAc(b1-3)Gal(b1-4)[Fuc(a1-3)]GlcNAc(b1-3)Gal(b1-4)[Fuc(a1-3)]GlcNAc
# Outline: as §1
# [16] = target: GlcNAc(a1-6)Gal(b1-4)GlcNAc
# Outline: as §1
# [17] = target: GlcNAc(b1-2)Gal(b1-3)GalNAc
# Outline: as §1
# [18] = target: GlcNAc(b1-2)Man(a1-3)[GlcNAc(b1-2)Man(a1-6)]Man(b1-4)GlcNAc(b1-4)GlcNAc
# Outline: as §1
# [19] = target: GlcNAc(b1-2)Man(a1-3)[GlcNAc(b1-2)Man(a1-6)]Man(b1-4)GlcNAc(b1-4)[Fuc(a1-6)]GlcNAc
# Outline: as §1
# [20] = target: GlcNAc(b1-2)Man(a1-3)[GlcNAc(b1-4)][GlcNAc(b1-2)Man(a1-6)]Man(b1-4)GlcNAc(b1-4)GlcNAc
# Outline: as §1
# [21] = target: GlcNAc(b1-2)Man(a1-3)[GlcNAc(b1-4)][GlcNAc(b1-2)Man(a1-6)]Man(b1-4)GlcNAc(b1-4)[Fuc(a1-6)]GlcNAc
# Outline: as §1
# [22] = target: GlcNAc(b1-2)[GlcNAc(b1-4)]Man(a1-3)[GlcNAc(b1-2)Man(a1-6)]Man(b1-4)GlcNAc(b1-4)GlcNAc
# Outline: as §1
# [23] = target: GlcNAc(b1-2)[GlcNAc(b1-4)]Man(a1-3)[GlcNAc(b1-4)][GlcNAc(b1-2)Man(a1-6)]Man(b1-4)GlcNAc(b1-4)GlcNAc
# Outline: as §1
# [24] = target: GlcNAc(b1-2)[GlcNAc(b1-4)]Man(a1-3)[GlcNAc(b1-4)][GlcNAc(b1-2)[GlcNAc(b1-6)]Man(a1-6)]Man(b1-4)GlcNAc(b1-4)GlcNAc
# Outline: as §1
# [25] = target: GlcNAc(b1-2)[GlcNAc(b1-4)]Man(a1-3)[GlcNAc(b1-4)][GlcNAc(b1-2)[GlcNAc(b1-6)]Man(a1-6)]Man(b1-4)GlcNAc(b1-4)[Fuc(a1-6)]GlcNAc
# Outline: as §1
# [26] = target: GlcNAc(b1-2)[GlcNAc(b1-6)]Man(a1-6)[GlcNAc(b1-2)Man(a1-3)]Man(b1-4)GlcNAc(b1-4)GlcNAc
# Outline: as §1
# [27] = target: GlcNAc(b1-2)[GlcNAc(b1-6)]Man(a1-6)[GlcNAc(b1-2)Man(a1-3)]Man(b1-4)GlcNAc(b1-4)[Fuc(a1-6)]GlcNAc
# Outline: as §1
# [28] = target: GlcNAc(b1-2)[GlcNAc(b1-6)]Man(a1-6)[GlcNAc(b1-4)][GlcNAc(b1-2)Man(a1-3)]Man(b1-4)GlcNAc(b1-4)GlcNAc
# Outline: as §1
# [29] = target: GlcNAc(b1-3)Fuc
# Outline: as §1
# [30] = target: GlcNAc(b1-3)Gal
# Outline: as §1
# [31] = target: GlcNAc(b1-3)Gal(b1-3)GalNAc
# Outline: as §1
# [32] = target: GlcNAc(b1-3)Gal(b1-4)Glc
# Outline: as §1
# [33] = target: GlcNAc(b1-3)Gal(b1-4)GlcNAc
# Outline: as §1
# [34] = target: GlcNAc(b1-3)Gal(b1-4)GlcNAc(b1-2)Man(a1-3)[GlcNAc(b1-3)Gal(b1-4)GlcNAc(b1-2)Man(a1-6)]Man(b1-4)GlcNAc(b1-4)GlcNAc
# Outline: as §1
# [35] = target: GlcNAc(b1-3)Gal(b1-4)GlcNAc(b1-2)Man(a1-3)[GlcNAc(b1-3)Gal(b1-4)GlcNAc(b1-2)Man(a1-6)]Man(b1-4)GlcNAc(b1-4)[Fuc(a1-6)]GlcNAc
# Outline: as §1
# [36] = target: GlcNAc(b1-3)Gal(b1-4)GlcNAc(b1-2)[GlcNAc(b1-3)Gal(b1-4)GlcNAc(b1-6)]Man(a1-6)[GlcNAc(b1-3)Gal(b1-4)GlcNAc(b1-2)Man(a1-3)]Man(b1-4)GlcNAc(b1-4)GlcNAc
# Outline: as §1
# [37] = target: GlcNAc(b1-3)Gal(b1-4)GlcNAc(b1-3)Gal(b1-4)GlcNAc
# Outline: as §1
binder,measurement,setting,value
B1,glycan array binding signal (z-score),[1],2.25
same,glycan array binding signal (z-score),[2],-0.327
same,glycan array binding signal (z-score),[3],-0.094
same,glycan array binding signal (z-score),[4],-0.203
same,glycan array binding signal (z-score),[5],1.05
same,glycan array binding signal (z-score),[6],0.208
same,glycan array binding signal (z-score),[7],0.468
same,glycan array binding signal (z-score),[8],-0.768
same,glycan array binding signal (z-score),[9],-0.652
same,glycan array binding signal (z-score),[10],-0.417
same,glycan array binding signal (z-score),[11],-0.514
same,glycan array binding signal (z-score),[12],-0.68
same,glycan array binding signal (z-score),[13],-0.339
same,glycan array binding signal (z-score),[14],-0.361
same,glycan array binding signal (z-score),[15],0.269
same,glycan array binding signal (z-score),[16],-0.564
same,glycan array binding signal (z-score),[17],-0.424
same,glycan array binding signal (z-score),[18],-0.174
same,glycan array binding signal (z-score),[19],0.431
same,glycan array binding signal (z-score),[20],-0.088
same,glycan array binding signal (z-score),[21],-0.607
same,glycan array binding signal (z-score),[22],-0.083
same,glycan array binding signal (z-score),[23],-0.159
same,glycan array binding signal (z-score),[24],-0.32
same,glycan array binding signal (z-score),[25],-0.482
same,glycan array binding signal (z-score),[26],-0.129
same,glycan array binding signal (z-score),[27],0.365
same,glycan array binding signal (z-score),[28],-0.589
same,glycan array binding signal (z-score),[29],0.318
same,glycan array binding signal (z-score),[30],0.516
same,glycan array binding signal (z-score),[31],-0.548
same,glycan array binding signal (z-score),[32],-0.125
same,glycan array binding signal (z-score),[33],-0.272
same,glycan array binding signal (z-score),[34],-0.21
same,glycan array binding signal (z-score),[35],-0.101
same,glycan array binding signal (z-score),[36],0.203
same,glycan array binding signal (z-score),[37],-0.583

# — the supplement of paper PMC8728848
